± gives the standard deviation of the averaged measurements. Whole data set: some 4,100 sequences, median “relative kcat/Km (krel) vs genomic leader AAAGAU” near 1.7, cut for the highest 2% near 6.5. Only a part is listed here, and it is no random draw.
Target: T1, E. coli RNase P holoenzyme (M1 P RNA + rnpA protein) (UniProt P0A7Y8)
T1 sequence: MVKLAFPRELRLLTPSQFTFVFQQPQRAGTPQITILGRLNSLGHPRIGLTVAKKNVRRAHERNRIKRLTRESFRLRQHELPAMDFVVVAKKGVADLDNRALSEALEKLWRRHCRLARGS
Test: relative kcat/Km (krel) vs genomic leader AAAGAU (relative (reference leader = 1)); higher = faster RNase P cleavage
Procedure: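 HTS-Kin: a pool of ptRNA-Met (21C construct) with all 4096 combinations of 5' leader nucleotides N(-6) to N(-1) was processed in vitro by E. coli RNase P (P RNA + rnpA/C5 protein) under multiple-turnover conditions at 37 C, pH 8, 17.5 mM MgCl2. Residual substrate was Illumina-sequenced at several fractions reacted, and relative kcat/Km (krel) was computed by internal competition kinetics, calibrated to the genomic leader (AAAGAU = 1). The listed hexamer is the varied N(-6)..N(-1) leader (DNA letters), and it sits between a fixed 5' stem-loop flank (GCAUGCACGAAAGUGCGUGCUAUGAA) and the mature tRNA-Met starting GGCUACGUAGCUCAGUUGG. Two technical replicates are averaged.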

[1] = fraction of substrate reacted: ~9-10% (9.79% repeat 1, 9.1% repeat 2)
[2] = fraction of substrate reacted: ~13-16% (15.68% repeat 1, 13.17% repeat 2)
[3] = fraction of substrate reacted: ~26-29% (28.66% repeat 1, 26.4% repeat 2)

Sequence	relative kcat/Km [1]	relative kcat/Km [2]	relative kcat/Km [3]
AATCTC	1.38 ± 0.14	1.64 ± 0.4	1.95 ± 0.53
GATTCG	–	–	0.817 ± 0.65
GCAGTT	0.536 ± 0.36	0.866 ± 0.18	0.976 ± 0.063
TTTAAC	2.8 ± 0.84	3.648 ± 0.032	4.86 ± 1.9
CGGTGC	0.76 ± 0.49	0.769 ± 0.23	0.969 ± 0.17
TATTAT	4.02 ± 1.1	5.95 ± 1.7	9.03 ± 4.1
TAACAA	1.82 ± 1.3	2.15 ± 0.13	2.99 ± 0.79
TTGCCC	1.55 ± 1.3	1.28 ± 0.44	1.91 ± 0.28
GCGGGC	0.925 ± 0.52	1.46 ± 1.3	1.29 ± 1.2
CTTGAT	–	0.824 ± 0.72	1.11 ± 0.45
AGTCAG	2.12 ± 2	1.91 ± 0.42	3.69 ± 0.62
TACGCT	2.94 ± 1.9	2.46 ± 0.7	3.68 ± 1.8
GGAACG	0.645 ± 0.46	–	0.746 ± 0.21
TTCCGA	4.31 ± 1.2	6.28 ± 2	9.5 ± 4.6
GCTCCA	1.7 ± 1.3	–	1.07 ± 0.51
CAAAAC	1.4 ± 0.17	1.59 ± 0.4	2.51 ± 0.41
GATTTG	–	0.827 ± 0.14	1.13 ± 0.83
CGGGAT	–	1.32 ± 0.55	1.75 ± 1.6
GTTTCT	3.22 ± 1.4	3.27 ± 0.61	4.73 ± 1.5
GCCGAA	3.56 ± 1.2	4.16 ± 0.78	6.35 ± 2.4
CGAGCT	1.06 ± 0.76	–	1.05 ± 0.42
CCAGTT	1.98 ± 0.65	1.24 ± 0.19	0.893 ± 0.45
CCAATA	0.695 ± 0.4	–	1.1 ± 0.25
GGGGCA	0.654 ± 0.35	1.18 ± 0.32	1.22 ± 0.88
TTTAAA	3.37 ± 1.6	3.88 ± 0.2	5.35 ± 2.1
ACTTAT	3.63 ± 1.5	4.92 ± 0.71	6.44 ± 2.8

Sequence	relative kcat/Km [1]	relative kcat/Km [2]	relative kcat/Km [3]
TCAGAC	2.89 ± 0.81	3.55 ± 0.82	4.62 ± 1.8
TCTTTA	2.54 ± 1.4	2.57 ± 0.1	3.16 ± 1.1
GTTATG	–	1.56 ± 0.24	3.32 ± 0.7
ATCATA	3.61 ± 1.8	4.31 ± 0.3	5.9 ± 2.2
AATAGG	–	–	1.45 ± 0.4
TAAACC	1.52 ± 0.58	1.37 ± 0.18	1.68 ± 0.3
CATCGA	3.72 ± 1.8	4.33 ± 0.91	5.24 ± 2.1
CCCGAT	2.59 ± 0.49	2.76 ± 1.2	3.21 ± 0.9
GGCGAG	–	–	2.16 ± 0.18
AGACAA	3.11 ± 2.3	2.95 ± 0.47	4.55 ± 1.7
GATTCT	1.89 ± 0.36	3.34 ± 0.97	4.25 ± 1.6
TAAGCG	–	–	0.846 ± 0.39
TTGCAT	1.76 ± 0.73	1.954 ± 0.0045	3.61 ± 1.6
CCTTGT	–	–	1.54 ± 1.2
TTAGTT	0.656 ± 0.62	–	1.66 ± 1
ACAGTA	1.54 ± 0.77	1.23 ± 0.58	1.37 ± 0.085
CGCACC	1.49 ± 0.45	2.44 ± 0.52	3.15 ± 1.3
TATCCC	–	1.82 ± 1.3	1.98 ± 0.047
TGCCCC	2.02 ± 0.15	1.91 ± 0.36	2.67 ± 0.78
TTCGAC	5.66 ± 1.9	7.11 ± 1.7	10.2 ± 4.3
TCGGCC	0.664 ± 0.36	1.1 ± 0.77	0.76 ± 0.27
CTGGCC	–	0.507 ± 0.38	–
GGACGC	1.85 ± 0.16	1.99 ± 1.2	2.74 ± 0.9
TAGATG	–	–	1.34 ± 0.28
GATGTC	–	1.01 ± 0.36	0.94 ± 0.016
CCCCTA	1.56 ± 0.18	2.01 ± 0.17	2.8 ± 0.9

Sequence	relative kcat/Km [1]	relative kcat/Km [2]	relative kcat/Km [3]
CGTAAG	2.41 ± 1.1	2 ± 0.73	3.38 ± 0.66
GATAGC	1.91 ± 0.41	2.11 ± 0.058	2.9 ± 1.1
TCTACT	2.22 ± 1.3	1.61 ± 0.15	2.55 ± 0.53
GCGAAA	2.4 ± 0.62	1.36 ± 0.072	2.16 ± 0.076
GAGAAC	–	2.42 ± 0.091	3.29 ± 0.67
TCGCCT	1.77 ± 0.043	2.41 ± 0.9	3.13 ± 1.1
CGCTCA	3.76 ± 1.1	3.59 ± 1.8	4.4 ± 1.5
TAGCGC	1.86 ± 0.53	1.68 ± 0.48	2.29 ± 1.1
ACGACT	0.558 ± 0.33	0.742 ± 0.21	1.07 ± 0.13
ACCCGA	3.55 ± 0.39	4.06 ± 0.66	5.44 ± 1.5
TAGACG	0.864 ± 0.52	0.847 ± 0.36	1.52 ± 0.046
GAGCCC	1.48 ± 0.67	1.31 ± 1.3	1.78 ± 0.8
AACGTT	0.929 ± 0.44	1.67 ± 0.47	1.77 ± 0.52
GTGTTG	–	–	0.805 ± 0.08
TTGGGA	1.09 ± 0.89	–	2.06 ± 1.8
CGCGTC	2.1 ± 1.4	1.92 ± 0.16	1.6 ± 0.28
TCCCAC	4.44 ± 1.1	5.53 ± 1.1	7.79 ± 3
CCTCAG	–	1.23 ± 0.065	1.83 ± 0.32
CCGGGA	0.744 ± 0.73	–	0.729 ± 0.063
GCGCAA	1.57 ± 0.93	1.43 ± 0.47	2.1 ± 0.36
CGGGCA	1.28 ± 0.55	0.965 ± 0.75	0.825 ± 0.17
ATCGGC	–	–	1.97 ± 1.5
CGCAAC	2.82 ± 1.1	2.42 ± 0.63	4.11 ± 1.6
GGCTGT	0.764 ± 0.28	1.3 ± 1	1.42 ± 0.93
TGCATC	2.12 ± 1.2	1.5 ± 0.48	2.05 ± 0.7
AGAGCT	0.812 ± 0.35	1.11 ± 0.015	1.09 ± 0.054

Sequence	relative kcat/Km [1]	relative kcat/Km [2]	relative kcat/Km [3]
AGCGCA	2.02 ± 0.99	2.06 ± 0.52	3.01 ± 0.81
ATCCAG	1.67 ± 0.93	1.77 ± 0.18	3.83 ± 0.61
ATTAAT	3.16 ± 1.7	3.1778 ± 0.0021	4.5 ± 1.7
TCGGAT	–	–	1.48 ± 1.2
GGATAT	1.83 ± 0.13	2.63 ± 0.49	3.4 ± 1.9
GTCTAA	4.58 ± 0.43	7.55 ± 1.7	10.1 ± 4.8
CAAGAT	1.15 ± 0.24	0.704 ± 0.019	1.49 ± 0.33
AGGATT	–	1.16 ± 0.83	1.39 ± 0.82
CACTCA	3.49 ± 1.5	3.54 ± 0.36	5.18 ± 2
ATGACT	1.54 ± 0.21	0.697 ± 0.028	1.64 ± 0.5
TGCCCG	0.408 ± 0.37	–	1 ± 0.59
TAACGC	3.03 ± 2.1	3 ± 0.12	3.59 ± 1.3
TGGAAG	–	–	0.432 ± 0.24
TTATCA	1.75 ± 0.34	2.22 ± 0.65	3.13 ± 1.6
ATAGAG	–	0.485 ± 0.15	1.73 ± 0.23
GTCGCC	4.34 ± 1.4	5.5 ± 0.42	–
CGGTTC	–	0.808 ± 0.75	0.718 ± 0.41
TTTGCA	1.98 ± 1.2	1.94 ± 0.097	2.52 ± 0.96
TCAGCA	1.49 ± 0.19	1.51 ± 0.79	2.22 ± 0.69
TAAATG	–	0.29 ± 0.26	1.54 ± 0.35
GTTCTT	2.61 ± 1.8	2.49 ± 0.24	3.4 ± 1.2
CTCGGC	–	–	1.23 ± 1.2
CCTTTA	1.51 ± 0.63	1.47 ± 0.27	2.25 ± 0.99
GGAAAA	1.64 ± 0.95	2.17 ± 0.57	2.77 ± 0.66
ACATCC	2.97 ± 1.8	3.72 ± 0.33	4.37 ± 1.2
TCAGGT	–	–	2.53 ± 2.4

Source: the supplement of paper PMC9433436
